Assay results from PubChem BioAssay AID686979 (National Center for Advancing Translational Sciences (NCATS), 2013).
The whole screen tested about 420,000 compounds, of which about 50,000 (12%) were called active. Inconclusive means that the source gave no clear call. Such entries were picked first, then a sample of the others. Calls come from the whole dose curve; as a rule, active = well fitted inhibition curve with a large enough effect; inconclusive = small, poorly fitted or top-dose-only effect; inactive = flat fitted curve, though single readings scatter. No potency is given beside an inconclusive call; the fits are too rough.

experiment: qHTS for Inhibitors of human tyrosyl-DNA phosphodiesterase 1 (TDP1): qHTS in cells in presence of CPT; settings: chicken DT40 Tdp1-/-;hTDP1 cells + 20 nM CPT, ATP luminescence, 48 h; activity change, negative = growth inhibition: at 46.2 µM (top of the series) unless noted; note: nearly all actives have a fitted effect of over 55% in size
In short: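 Chicken DT40 Tdp1-/- cells complemented with human TDP1, 400 cells/well, exposed to compounds plus 20 nM camptothecin for at least 48 h at 37 C; viability read as ATP content by CellTiter-Glo luminescence.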
% is set by controls: 0 for no effect and ±100 for the full control effect; potency is the fitted concentration of half-maximal effect; tags give direction and shape of the fitted curve.

Row | Compound | Potency | activity change, negative = growth inhibition
1 | Clc1ccc(CNc2ncnc3onc(-c4ccc(Cl)cc4)c23)cc1 | inconclusive [inhibitor, single point] | 
2 | Cc1c(Cl)cccc1NC(=S)N1CCN(Cc2ccc3c(c2)OCO3)CC1 | inactive | 
3 | CN1C(=O)c2ccccc2Sc2ccc(NC(=O)N3CCN(c4cccc(Cl)c4)CC3)cc21 | active: 7.31 µM | 
4 | CCC1CCCCN1S(=O)(=O)c1ccc(C(=O)Nc2nnc(-c3cccs3)o2)cc1 (stereo unspecified) | active: 6.31 µM | 
5 | O=C1CCN(Cc2nnnn2CC2CCCO2)c2ccccc2N1 (stereo unspecified) |  | inconclusive: -30.5% [inhibitor]
6 | CC(=O)Nc1cccc(-c2ccnc3c2CC(C(=O)NCc2ccc(N4CCN(C)CC4)cc2)O3)c1 (stereo unspecified) | inconclusive [inhibitor, single point] | 
7 | CN1CCc2c1nc1ccccc1c2NC(=O)CN1CCCC1 | inactive | 
8 | CCC(C)NC(=O)Cn1c(COc2ccc(Cl)cc2Cl)nc2ccccc21 (stereo unspecified) | inconclusive [inhibitor, single point] | 
9 | CN(C)c1ccc(C(=O)NCc2ccc3c(c2)CCN3C(=O)c2ccc(Cl)cc2)cc1 | inactive | 
10 | O=C(O)CC(NC(=O)C12CC3CC(CC(C3)C1)C2)c1ccc(OC2CCCC2)cc1 (stereo unspecified) | inactive | 
11 | CSCCC(NC(=O)c1ccc(Cl)cc1Cl)C(=O)NCc1ccccn1 (stereo unspecified) | inconclusive [inhibitor, single point] | 
12 | Cc1cc(NC(=O)C(C)SCC(=O)N(C)Cc2c(F)cccc2Cl)no1 (stereo unspecified) | inconclusive [inhibitor, single point] | 
13 | Cc1ccc(C(C)(C)C)cc1S(=O)(=O)Nc1cccc(C(=O)N2CCN(c3ccccn3)CC2)c1 | active: 29.1 µM | 
14 | COc1ccc(C(=O)NCc2ccc3c(c2)CCN3C(=O)c2ccc(Cl)cc2)c(OC)c1 | active: 18.4 µM | 
15 | O=C(N/N=C/c1ccccn1)c1cccc(S(=O)(=O)Nc2ccccc2Cl)c1 | active: 16.4 µM | 
16 | O=C(NCCC1=CCCCC1)C1CCCN(S(=O)(=O)c2cnc[nH]2)C1 (stereo unspecified) | inactive | 
17 | CN(C(=O)CSc1nc(-c2ccccc2)c(-c2ccccc2)o1)C1CCS(=O)(=O)C1 (stereo unspecified) | inconclusive [inhibitor, single point] | 
18 | Cc1cc(C)n(-c2nc3ccccc3nc2N2CCN(S(=O)(=O)c3cccc(C#N)c3)CC2)n1 | inconclusive [inhibitor, single point] | 
19 | Cc1ccc(N2CCN(C(C(=O)Nc3c(C)cccc3C)c3ccccc3OC(F)(F)F)CC2)cc1 (stereo unspecified) | inconclusive [inhibitor, single point] | 
20 | FC(F)(F)c1nc2ccccc2c2nc3ccccc3n12 | inactive | 
21 | CC1CC(C)CN(C(=O)COC(=O)c2ccc3c(c2)C(=O)N(Cc2ccco2)C3=O)C1 (stereo unspecified) | inactive | 
22 | COc1cc(OC)cc(C(=O)Nc2cccc(-c3cn4ccsc4n3)c2)c1 | active: 13 µM | 
23 | CCOC(=O)C1(CCOC)CCN(Cc2ccccc2-c2ccco2)CC1 | inconclusive [inhibitor, single point] | 
24 | CCC(Cc1ccccc1)NC(=O)c1cccc(Nc2nc3ccccc3nc2-n2nc(C)cc2C)c1 (stereo unspecified) | inactive | 

Row | Compound | Potency | activity change, negative = growth inhibition
25 | CCCCCCCNC(=O)C1(CC2CC(c3ccccc3)=NO2)CCN(C(=O)OC(C)(C)C)CC1 (stereo unspecified) | inconclusive [inhibitor, single point] | 
26 | CCCCOc1c(Br)cc(/C=N/O)cc1OCC | inconclusive [inhibitor, partial curve] | 
27 | CCC1CN(C(=O)N2CCC(C(=O)NCCC3=CCCCC3)CC2)c2ccccc2O1 (stereo unspecified) | active: 16.4 µM | 
28 | O=C(CN1CCN(Cc2ccccc2)CC1)N1CCCc2c1c(=O)oc1ccc(O)cc21 | active: 23.1 µM | 
29 | Cc1nc(-c2ccc(NC(=O)/C=C\C(=O)O)cc2)cs1 | inconclusive [inhibitor, single point] | 
30 | CNC(=S)c1cc(C(C)(C)C)c(O)c(C(C)(C)C)c1 | inactive | 
31 | CCOc1ccc(NC(=O)CSc2cn(CC(=O)N3CCOCC3)c3ccccc23)cc1 | inconclusive [inhibitor, partial curve] | 
32 | COc1cc(OC)cc(-c2c(-c3ccc(C(C)=O)cc3)c3cc(-c4cccc5[nH]ccc45)ccc3n2C)c1 | inconclusive [inhibitor, single point] | 
33 | O=C(CCc1ccccc1)Nc1ccccc1OC(=O)c1ccccc1 | inconclusive [inhibitor, single point] | 
34 | CCN(CC(=O)Nc1ccc(OC)cc1)C(=O)c1ccc2[nH]c3c(c2c1)CC(C)CC3 (stereo unspecified) | inconclusive [inhibitor, single point] | 
35 | CCC1CCCCN1C(=O)Cn1c(=O)n(-c2ccc(Cl)c(Cl)c2)c(=O)c2c(C)c(C(=O)N(C)C)sc21 (stereo unspecified) | inactive | 
36 | COc1ccc(NC(=O)C2Cc3c(-c4ccc(NC(C)=O)cc4)ccnc3O2)cn1 (stereo unspecified) | active: 8.2 µM | 
37 | COc1ccc(C(O)c2ncc(-c3ccccc3F)[nH]2)cc1 (stereo unspecified) | inconclusive [inhibitor, partial curve] | 
38 | COc1cc(-c2coc3c(C(=O)NCc4ccc(C(F)(F)F)cc4)cccc23)ccc1O | active: 14.6 µM | 
39 | Cc1cc(N2CCN(C3CCCC3)CC2)n2c(nc3ccccc32)c1C#N | inconclusive [inhibitor, single point] | 
40 | O=C(NCc1cccnc1)c1ccc2sc([C@H]3C[C@H](O)[C@@H](CO)O3)nc2c1 | inactive | 
41 | CC1(c2nnnn2Cc2ccccc2)CCC(=O)N1Cc1ccc(F)cc1 (stereo unspecified) | inactive | 
42 | CCOC(=O)C1(Cc2cccc(Cl)c2)CCCN(C(=O)c2cc(C)n(C)n2)C1 (stereo unspecified) | inconclusive [inhibitor, single point] | 
43 | Cn1cc(-c2nc3ccccc3[nH]2)c2ccccc21 | inconclusive [inhibitor, single point] | 
44 | CCCc1nn(C)c(C(=O)Nc2ccc(C(C)(C)C)cc2)c1Cl | inconclusive [inhibitor, single point] | 
45 | O=C(COC(=O)COc1ccccc1)NC1CCS(=O)(=O)C1 (stereo unspecified) | inactive | 
46 | COc1ccc(N2CCN(Cc3cc4c(cc3Br)OCCO4)CC2)cc1 | inconclusive [inhibitor, single point] | 
47 | O=C(c1cc(C2CC2)nn1-c1ccccc1)N1CCN(c2ccc(O)cc2)CC1 | inconclusive [inhibitor, single point] | 
48 | CCc1c(C)nc2ncnn2c1NCc1cccs1 | inconclusive [inhibitor, single point] | 

Row | Compound | Potency | activity change, negative = growth inhibition
49 | CC(=O)Nc1ccc(CNc2nc3cc(-c4ccccc4C)sc3c(=O)n2C)cc1 | inconclusive [inhibitor, single point] | 
50 | COc1ccccc1-c1nc(N(C)Cc2ccco2)c2ccccc2n1 | inconclusive [inhibitor, single point] | 
51 | NS(=O)(=O)c1ccc(Sc2ccc3ccccc3c2)nc1 | inconclusive [inhibitor, single point] | 
52 | COc1ccc(CCNC(=O)c2cc(=O)[nH]c3ccc(S(=O)(=O)N4CCCCC4)cc23)cc1OC | inactive | 
53 | CCOC(=O)N1CCN(C(=O)COC(=O)c2ccc(N(C)C)cc2)CC1 | inconclusive [inhibitor, full curve] | 
54 | Cc1cc(C)c(S(=O)(=O)N2CCOC2CNC(=O)C(=O)NCCc2c[nH]c3ccccc23)c(C)c1 (stereo unspecified) | active: 25.9 µM | 
55 | Cc1ccc(-n2c(-c3ccccc3)n[nH]c2=S)cc1 | inactive | 
56 | CCOC(=O)N1CCN(C(=O)CCSc2ccc(C)cc2)CC1 | active: 23.1 µM | 
57 | O=C(COC(=O)Cc1ccsc1)NCc1ccc(Cl)cc1 | inconclusive [inhibitor, partial curve, poor fit] | 
58 | CCn1c(C)nc2cc(C(=O)OC(C(F)(F)C(F)F)C(F)(F)C(F)F)ccc21 | inconclusive [inhibitor, single point] | 
59 | COc1ccc(NC(=O)COc2ccccc2Cc2ccccc2)cc1S(N)(=O)=O | active: 20.6 µM | 
60 | COCCN(C(=S)Nc1cc(C)cc(C)c1)C(C)c1ccco1 (stereo unspecified) | inconclusive [inhibitor, single point] | 
61 | N#CC1=C(N)C(C#N)(C#N)C(c2cccnc2)C2CC(c3ccccc3)CC=C12 (stereo unspecified) | active: 16.4 µM | 
62 | C=CCn1c(SCC(=O)Nc2nnc(C)s2)nnc1C1CC1 | inactive | 
63 | O=C(C1=C[C@@H](C2CC2)C[C@@H](OCc2ccc(CO)cc2)O1)N1CCN(Cc2ccc3c(c2)OCO3)CC1 | inconclusive [inhibitor, single point] | 
64 | Cc1ccc(S(=O)(=O)N(C)c2ccc(OCC(=O)OCc3cccc(Br)c3)cc2)cc1 | inconclusive [inhibitor, single point] | 
65 | O=C(COC(=O)c1cc(S(=O)(=O)N2CCOCC2)ccc1Cl)NC1CCCCC1 | inactive | 
66 | Cc1ccc(N(CC(=O)N2CCN(c3cccc(C)c3C)CC2)S(=O)(=O)c2c(C)nn(C)c2C)cc1 | active: 8.2 µM | 
67 | CCN(c1cc(C)cc(C)c1)S(=O)(=O)c1nnc(NC(=O)c2ccccc2C)s1 | inconclusive [inhibitor, single point] | 
68 | Cc1c(Cl)cccc1Nc1ccccc1C(=O)O | inconclusive [inhibitor, single point] | 
69 | CCN(CC)c1nn2c(=O)c(C(=O)NCc3ccccc3Br)cnc2s1 | active: 23.1 µM | 
70 | Cc1ccc(C(C)C)c(OCCCN2CC(C)OC(C)C2)c1 (stereo unspecified) | inconclusive [inhibitor, single point] | 
71 | O=C(O)c1ccc(NC(CSCc2cccc(F)c2)C(=O)O)c([N+](=O)[O-])c1 (stereo unspecified) | inactive | 
